A collection of fitness landscapes (doi:10.1016/j.celrep.2020.107928)
Whole data set: some 81,000 sequences, median “one-hybrid fitness for binding parS DNA” near -0.17, cut for the highest 2% near 0.51. Some of the results follow.

B1: Caulobacter ParB omega fusion; a variant is named by its letters at X, in order, B8GW30 (parent)
chain: MESVVVGEPGMSEGRRGLGRGLSALLGEVDAAPAQAPGEQLGGSREAPIEILQRNPDQPRRTFREEDLEDLSNSIREKGVLQPILVRPSPDTAGEYQIVAGERAWRAAQRAGLKTVPIMVRELDDLAVLEIGIIENVQRADLNVLEEALSYKVLMEKFERTQENIAQTIGKSXSHVANXMRLLXLPDEVQSYLVSGELTAXHARAIAAAADPVALAKQIIEGGLSVRETEALARKAPNLSAGKSKGGRPPRVKDTDTQALESDLSSVLGLDVSIDHRGSTGTLTITYATLEQLDDLCNRLTRGI

Variants of: B1
Assay: one-hybrid fitness for binding parS DNA (scaled: cognate 1, non-cognate 0); higher = stronger binding
Conditions: with parS DNA site
Outline: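 Fitness here means the log change in variant-to-wild-type read ratio between plasmids sequenced before and after selection. That scale was set so cognate equals 1 and non-cognate equals 0. The selection was a bacterial one-hybrid screen of Caulobacter ParB libraries, four specificity codons randomised, in E. coli USO carrying a HIS3 reporter with the site 19 bp from the promoter, grown 48 hours at 37°C on M9-minus-histidine with 0.1 mM IPTG and 5 mM 3-AT.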

Variant | one-hybrid fitness for binding parS DNA
TITK | ≤ 0.2
DAQQ | ≤ 0.2
NFGC | ≤ 0.2
KENS | ≤ 0.2
LWIT | ≤ 0.2
HGNT | ≤ 0.2
QRFI | ≤ 0.2
GPFR | ≤ 0.2
RMEG | 0.86
RITW | 0.203
VARK | ≤ 0.2
MAPR | ≤ 0.2
MLSC | ≤ 0.2
HYTG | ≤ 0.2
RCNN | 0.459
PHKR | ≤ 0.2
AYVW | ≤ 0.2
TNTE | ≤ 0.2
EAHE | ≤ 0.2
HTFG | ≤ 0.2
RMHC | 0.979
LLDV | ≤ 0.2
IVKL | ≤ 0.2
RSPT | 0.372
PMMD | ≤ 0.2

Variant | one-hybrid fitness for binding parS DNA
PSMG | ≤ 0.2
HVTC | ≤ 0.2
SPAE | ≤ 0.2
CVRG | ≤ 0.2
VIMG | ≤ 0.2
VSAI | ≤ 0.2
VWMR | ≤ 0.2
GRPP | ≤ 0.2
QNDG | ≤ 0.2
PTNV | ≤ 0.2
PFGG | ≤ 0.2
YYAT | ≤ 0.2
LNHD | ≤ 0.2
YCPR | ≤ 0.2
CLTA | ≤ 0.2
FDVL | ≤ 0.2
LDMC | ≤ 0.2
PLYD | ≤ 0.2
GTMF | ≤ 0.2
LRLM | ≤ 0.2
QWHG | ≤ 0.2
EPRG | ≤ 0.2
PRCV | ≤ 0.2
SLCI | ≤ 0.2
SELL | ≤ 0.2

Variant | one-hybrid fitness for binding parS DNA
TEQC | ≤ 0.2
EGYS | ≤ 0.2
FTCC | ≤ 0.2
FSRA | ≤ 0.2
DRCG | ≤ 0.2
FIER | ≤ 0.2
ECPE | ≤ 0.2
QWQI | ≤ 0.2
EFAL | ≤ 0.2
QAYG | ≤ 0.2
QFLA | ≤ 0.2
HKYC | ≤ 0.2
PPGG | ≤ 0.2
GPWL | ≤ 0.2
IHST | ≤ 0.2
YPQG | ≤ 0.2
RSVH | ≤ 0.2
KTPS | ≤ 0.2
TGSD | ≤ 0.2
MNLS | ≤ 0.2
WVDG | ≤ 0.2
KRPT | ≤ 0.2
NPWG | ≤ 0.2
QYWT | ≤ 0.2
YNCT | ≤ 0.2

Variant | one-hybrid fitness for binding parS DNA
GNQV | ≤ 0.2
RFQS | 1
QMQE | ≤ 0.2
TSHF | ≤ 0.2
GHDT | ≤ 0.2
MGHE | 0.254
DWSC | ≤ 0.2
RQFL | ≤ 0.2
QIVI | ≤ 0.2
ADGP | ≤ 0.2
VPIT | ≤ 0.2
PQTG | ≤ 0.2
TAYI | ≤ 0.2
EGNL | ≤ 0.2
RAFA | 0.624
KCKT | ≤ 0.2
YSVR | ≤ 0.2
SSVD | ≤ 0.2
LNDM | ≤ 0.2
VTVQ | ≤ 0.2
ETAY | ≤ 0.2
EIIS | ≤ 0.2
PANV | ≤ 0.2
DTAD | ≤ 0.2
KILV | ≤ 0.2

Variant | one-hybrid fitness for binding parS DNA
HKCT | ≤ 0.2
YEVR | ≤ 0.2
AQAP | ≤ 0.2
PWMT | ≤ 0.2
ENTR | ≤ 0.2
RNSI | ≤ 0.2
TPVS | ≤ 0.2
HKYG | ≤ 0.2
RGAY | ≤ 0.2
CHKS | ≤ 0.2
EYVS | ≤ 0.2
NTWF | ≤ 0.2
VAQF | ≤ 0.2
HGQK | ≤ 0.2
GPPY | ≤ 0.2
VMLF | ≤ 0.2
RGAC | 0.584
HNPP | 0.237
HIPT | ≤ 0.2
TNKG | ≤ 0.2
QCHY | ≤ 0.2
SVNA | ≤ 0.2
HCLI | ≤ 0.2
ANMC | ≤ 0.2
RCVN | 0.406

Variant | one-hybrid fitness for binding parS DNA
KMYR | ≤ 0.2
GRHM | ≤ 0.2
RIRH | 0.29
CSTN | ≤ 0.2
PFTD | ≤ 0.2
RFEG | 0.731
LDSS | ≤ 0.2
LCLR | ≤ 0.2
LFKT | ≤ 0.2
YSPS | ≤ 0.2
SPTY | ≤ 0.2
GSHE | ≤ 0.2
LSWA | ≤ 0.2
ACIS | ≤ 0.2
EMLV | ≤ 0.2
DMCT | ≤ 0.2
ESCV | ≤ 0.2
ESES | ≤ 0.2
SYQA | ≤ 0.2
YFSG | ≤ 0.2
GNCN | ≤ 0.2
PKSY | ≤ 0.2
IEPT | ≤ 0.2
IHKP | ≤ 0.2
SKIT | ≤ 0.2

Variant | one-hybrid fitness for binding parS DNA
WLWC | ≤ 0.2
RGSM | ≤ 0.2
PSIG | ≤ 0.2
YQGM | ≤ 0.2
QLNW | ≤ 0.2
QRSM | ≤ 0.2
QHIN | ≤ 0.2
LRLY | ≤ 0.2
YSGR | ≤ 0.2
HPDM | ≤ 0.2
FLMC | ≤ 0.2
PSAI | ≤ 0.2
PITN | ≤ 0.2
NKPL | ≤ 0.2
VAYT | ≤ 0.2
IPKL | ≤ 0.2
LGYT | ≤ 0.2
RPYF | ≤ 0.2
RRSP | ≤ 0.2
QKLV | ≤ 0.2
LEGL | ≤ 0.2
EVMG | ≤ 0.2
TDKR | ≤ 0.2
IRHR | ≤ 0.2
RMSR | ≤ 0.2

Variant | one-hybrid fitness for binding parS DNA
VFLK | ≤ 0.2
HPTY | ≤ 0.2
SWHC | ≤ 0.2
THSN | ≤ 0.2
TIPF | ≤ 0.2
RMHF | 0.269
RIMQ | ≤ 0.2
AHRW | ≤ 0.2
QYAM | ≤ 0.2
QPLM | ≤ 0.2
GYYS | ≤ 0.2
HTLA | ≤ 0.2
YNHF | ≤ 0.2
SSAF | ≤ 0.2
MNYL | ≤ 0.2
LPYK | ≤ 0.2
LHYC | ≤ 0.2
QYPV | ≤ 0.2
PRTK | ≤ 0.2
DCRK | ≤ 0.2
